This is an account of results in article PMC5681660, “Reduced hepatitis B and D viral entry using clinically applied drugs as novel inhibitors of the bile acid transporter NTCP” (Scientific Reports, 2017).

Experiment [1] deals with T1, human NTCP (Homo sapiens, UniProt Q14973).
T1 sequence (Q14973 1-349): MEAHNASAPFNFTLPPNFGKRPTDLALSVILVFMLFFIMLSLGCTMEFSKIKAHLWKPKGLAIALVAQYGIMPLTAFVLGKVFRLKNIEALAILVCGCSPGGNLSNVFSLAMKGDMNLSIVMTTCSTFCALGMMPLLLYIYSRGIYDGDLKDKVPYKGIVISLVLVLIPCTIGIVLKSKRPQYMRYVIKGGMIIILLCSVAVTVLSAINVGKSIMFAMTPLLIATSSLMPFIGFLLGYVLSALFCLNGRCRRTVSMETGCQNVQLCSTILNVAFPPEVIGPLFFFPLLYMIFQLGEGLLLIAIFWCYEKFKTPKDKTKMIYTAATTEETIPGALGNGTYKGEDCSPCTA
The experiment is described as follows: Screening fluorescent competitive Myrcludex B-FITC binding assay (96-well, 10 µM drug). Particulars: for remaining activity at 10 µM: 0.5 h; for %NTCP binding: Myrcludex B-FITC binding, 10 µM drug.

In experiment [2] the target is T1, human NTCP. Nature of the experiment: Screening taurocholate uptake assay (96-well, [14C]taurocholate, 10 µM drug). As to conditions: for remaining activity at 10 µM: 10 min, read-out: %NTCP activity; for %NTCP activity: [14C]taurocholate uptake, 10 µM drug.
[3] abbreviates: read-out: %NTCP binding, Prestwick library screen, Myrcludex B-FITC binding, 10 µM drug.

Each structure is given as a SMILES string. Structures can show the parent of a compound that is named as a salt.

Turning to `NS(=O)(=O)c1cc2c(cc1Cl)NCNS2(=O)=O` [Hydrochlorothiazide], the remaining activity at 10 µM in experiment [1] (read-out: %NTCP binding) amounted to 113%; in experiment [2] it was 138%.
Taken in the same sequence, the figures for `NS(=O)(=O)c1cc2c(cc1C(F)(F)F)NCNS2(=O)=O` [Hydroflumethiazide] were 105% and 154%.
Taken in the same sequence, the figures for `CCN(CCO)CCCC(C)Nc1ccnc2cc(Cl)ccc12` (stereo not drawn) [Hydroxychloroquine sulfate] were 84.6% and 120%.
As for `OCCOCCN1CCN(C(c2ccccc2)c2ccc(Cl)cc2)CC1` (stereo not drawn) [Hydroxyzine dihydrochloride], the remaining activity at 10 µM in experiment [1] (read-out: %NTCP binding) was found to be 81.6%; in experiment [2], 75.7%.
Consider `Cc1cc(=O)oc2cc(O)ccc12` [Hymecromone], for which the values for the remaining activity at 10 µM in experiment [1] (read-out: %NTCP binding) and in experiment [2] were 122% and 51.2%, respectively.
In the case of `CC(C)C(=O)c1c(C(C)C)nn2ccccc12` [Ibudilast], the values for the remaining activity at 10 µM in experiment [1] (read-out: %NTCP binding) and in experiment [2] were 97.6% and 86.1%, respectively.
On to `CCCCCCCN(CC)CCCC(O)c1ccc(NS(C)(=O)=O)cc1.CCCCCCCN(CC)CCCC(O)c1ccc(NS(C)(=O)=O)cc1.O=C(O)/C=C/C(=O)O` (stereo not drawn) [Ibutilide fumarate], for which, in experiment [1] (Prestwick library screen), the “%NTCP binding” value was found to be 85.6166%. Besides, in experiment [2] (Prestwick library screen), the “%NTCP activity” value amounted to 87.681%.
For `COC1=C(OC)C(=O)C(CCCCCCCCCCO)=C(C)C1=O` [Idebenone], the remaining activity at 10 µM turned out to be 61.5% in experiment [1] (read-out: %NTCP binding) and 59.2% in experiment [2].
Regarding `CC(C(O)c1ccc(O)cc1)N1CCC(Cc2ccccc2)CC1.CC(C(O)c1ccc(O)cc1)N1CCC(Cc2ccccc2)CC1.O=C(O)C(O)C(O)C(=O)O` (stereo not drawn) [Ifenprodil tartrate], the “%NTCP binding” value in experiment [1] (Prestwick library screen) was found to be 75.0771%. Also, the “%NTCP activity” value in experiment [2] (Prestwick library screen) was 83.9725%.
For the compound `O=P1(NCCCl)OCCCN1CCCl` (stereo not drawn) [Ifosfamide], the remaining activity at 10 µM was 101% in experiment [1] (read-out: %NTCP binding, screen, 10 µM drug, Myrcludex B-FITC binding) and 104% in experiment [2].
Take `O=C(NCNC(=O)NC1C(=O)NC(=O)N1CO)NC1C(=O)NC(=O)N1CO` (stereo not drawn) [Imidurea]: the remaining activity at 10 µM in experiment [1] (read-out: %NTCP binding, Prestwick library screen, 10 µM drug, Myrcludex B-FITC binding) was found to be 101%; in experiment [2], 82.5%.
Take `C[C@@H](O)[C@H]1C(=O)N2C(C(=O)O)=C(SCCN=CN)C[C@H]12` [Imipenem]: the remaining activity at 10 µM in experiment [1] (read-out: %NTCP binding) was determined as 69.3%; in experiment [2], 62.1%.
`CC(C)Cn1cnc2c(N)nc3ccccc3c21` [Imiquimod]: the remaining activity at 10 µM in experiment [1] (read-out: %NTCP binding) turned out to be 89.5%; in experiment [2] it was 113%.
As to `CC1Cc2ccccc2N1NC(=O)c1ccc(Cl)c(S(N)(=O)=O)c1` (stereo not drawn) [Indapamide], the results for the remaining activity at 10 µM in experiment [1] (read-out: %NTCP binding) and in experiment [2] were 55.7% and 130%, respectively.
Regarding `CN[C@@H]1C[C@@H](c2ccc(Cl)c(Cl)c2)c2ccccc21` [Indatraline hydrochloride], the remaining activity at 10 µM in experiment [1] (setting [3]) is 98.7%; in experiment [2] it was 47.4%.
For `CC(C)(C)NC(=O)[C@@H]1CN(Cc2cccnc2)CCN1C[C@@H](O)C[C@@H](Cc1ccccc1)C(=O)N[C@H]1c2ccccc2C[C@H]1O` [Indinavir sulfate], the remaining activity at 10 µM amounted to 67.9% in experiment [1] (read-out: %NTCP binding) and 81% in experiment [2].
In the same order, the values of `CC(C(=O)O)c1ccc(N2Cc3ccccc3C2=O)cc1` (stereo not drawn) [Indoprofen] are 114% and 116%.
As to `O=C(CCCCC(=O)Nc1c(I)cc(I)c(C(=O)O)c1I)Nc1c(I)cc(I)c(C(=O)O)c1I` [Iodipamide], the remaining activity at 10 µM in experiment [1] (read-out: %NTCP binding) came out at 83.8%; in experiment [2], 74%.
Taken in the same sequence, the figures for `CC(=O)N(CC(O)CO)c1c(I)c(C(=O)NCC(O)CO)c(I)c(C(=O)NCC(O)CO)c1I` (stereo not drawn) [Iohexol] were 80.2% and 71.7%.
In the same order, the values of `CCC(Cc1c(I)cc(I)c(N)c1I)C(=O)O` (stereo not drawn) [Iopanoic acid] are 95.3% and 50.5%.
In the same order, the values of `O=C(NCC(O)CO)c1c(I)c(C(=O)NCC(O)CO)c(I)c(N(CCO)C(=O)CO)c1I` (stereo not drawn) [Ioversol] are 74.7% and 122%.
Take `CNC(=O)c1c(I)c(C(=O)NCC(=O)Nc2c(I)c(C(=O)O)c(I)c(C(=O)NCCO)c2I)c(I)c(N(C)C(C)=O)c1I` [Ioxaglic acid]: the remaining activity at 10 µM amounted to 122% in experiment [1] (read-out: %NTCP binding) and 55.5% in experiment [2].
Taken in the same sequence, the figures for `CC(C)Oc1ccc2c(=O)c(-c3ccccc3)coc2c1` [Ipriflavone] were 93.6% and 99.6%.
In the same order, the values of `O=C1c2ccccc2S(=O)(=O)N1CCCCN1CCN(c2ncccn2)CC1` [Ipsapirone] are 87.4% and 133%.
Taken in the same sequence, the figures for `Nc1nc(N)nc(-c2cc(Cl)ccc2Cl)n1` [Irsogladine maleate] were 75.2% and 135%.
As to `Cc1cc(C(=O)NNCc2ccccc2)no1` [Isocarboxazid], the remaining activity at 10 µM was 76.1% in experiment [1] (read-out: %NTCP binding) and 58% in experiment [2].
Taken in the same sequence, the figures for `Clc1ccc(C(Cn2ccnc2)OCc2c(Cl)cccc2Cl)c(Cl)c1` (stereo not drawn) [Isoconazole] were 91.9% and 67%.
Taken in the same sequence, the figures for `CC(=O)OCC(=O)[C@@]1(O)CC[C@H]2[C@@H]3CCC4=CC(=O)C=C[C@]4(C)[C@@]3(F)[C@@H](O)C[C@@]21C` [Isoflupredone acetate] were 111% and 108%.
Turning to `CNC(C)CCC=C(C)C.CNC(C)CCC=C(C)C.O=C(O)[C@@H](O)[C@H](O)[C@H](O)[C@@H](O)C(=O)O` [Isometheptene mucate], in experiment [1] (screen), the “%NTCP binding” value is reported as 88.0132%. Further, the “%NTCP activity” value in experiment [2] (screen) is on record as 90.1978%.
For `NNC(=O)c1ccncc1` [Isoniazid], the remaining activity at 10 µM in experiment [1] (read-out: %NTCP binding) was found to be 91.3%; in experiment [2], 106%.
Regarding `CC(C)[N+](C)(CCC(C(N)=O)(c1ccccc1)c1ccccc1)C(C)C` [Isopropamide iodide], the results for the remaining activity at 10 µM in experiment [1] (setting [3]) and in experiment [2] were 90.9% and 97.5%, respectively.
As to `Cc1cc(NC(=O)C2=C(O)c3ccccc3S(=O)(=O)N2C)no1` [Isoxicam], the figures for the remaining activity at 10 µM in experiment [1] (read-out: %NTCP binding) and in experiment [2] were 113% and 157%, respectively.
Taken in the same sequence, the figures for `CC(COc1ccccc1)NC(C)C(O)c1ccc(O)cc1` (stereo not drawn) [Isoxsuprine hydrochloride] were 110% and 103%.
Taken in the same sequence, the figures for `COc1ccc(C(=O)NCc2ccc(OCCN(C)C)cc2)cc1OC` [Itopride] were 50% and 58.9%.
Take `CCC(C)n1ncn(-c2ccc(N3CCN(c4ccc(OCC5COC(Cn6cncn6)(c6ccc(Cl)cc6Cl)O5)cc4)CC3)cc2)c1=O` (stereo not drawn) [Itraconazole]: the figures for the remaining activity at 10 µM in experiment [1] (read-out: %NTCP binding) and in experiment [2] were 87.4% and 115%, respectively.
For the compound `CO[C@@H]1[C@@H](O[C@@H]2O[C@H](C)[C@@H](O[C@H]3C[C@@](C)(O)[C@@H](OC(=O)CC(C)C)[C@H](C)O3)[C@H](N(C)C)[C@H]2O)[C@@H](CC=O)C[C@@H](C)[C@@H](O)/C=C/C=C/C[C@@H](C)OC(=O)C[C@H]1OC(C)=O` [Josamycin], the results for the remaining activity at 10 µM in experiment [1] (read-out: %NTCP binding) and in experiment [2] were 87% and 97.2%, respectively.
